The text below walks through data of article PMC11451635, “A Broad Spectrum Lasso Peptide Antibiotic Targeting the Bacterial Ribosome” (Research Square, 2024).

Values after ≈ are worked out from the molar mass of the structure shown. Where two headings read alike, the source gives them in different places. Where a SMILES comes first, the peptide text is derived from it. Bridges are numbered along the chain shown (N, C = ends). Where no end group is shown, it is not given here.

One assay concerns E coli BW25113 mcr-1. To be noted: MHB, 37°C, 18–22 h.
Assay [1] relates to Mycobacterium tuberculosis Ra. To be noted: column MHB; method: Middlebrook 7H9 with 10% OADC, read after two to three days.
Another assay relates to RNA polymerase. The following applies: cited from earlier work.

With `CC(C)[C@H](NC(=O)CNC(=O)[C@H](CCCNC(=N)N)NC(=O)CNC(=O)[C@H](Cc1ccccc1)NC(=O)[C@H](CCCCN)NC(=O)CNC(=O)[C@@H]1CC(=O)N[C@@H](CO)C(=O)N[C@@H](CCCCN)C(=O)N[C@@H](CCCCN)C(=O)N[C@@H](CO)C(=O)N[C@@H](CCCCN)C(=O)N2CCC[C@H]2C(=O)NCC(=O)N1)C(=O)N[C@@H](CCCCN)C(=O)N[C@@H](CCCNC(=N)N)C(=O)NCC(=O)O` [LAR, lariocidin] (SKKSKPGDGKFGRGVKRG-OH; lactam N-8), the values for the MIC (in the assay on E coli BW25113 mcr-1; in assay [1]; with efflux impaired E. coli) were 64 µg/mL (≈ 34.2 µM), 4 to 8 µg/mL and 2 to 4 µg/mL, respectively.
In the case of “capistruin (GTPGFQTPDARVISRFGFN; lactam N-9 (inferred); UniProt P0DQM5 29-47, looked up)”, in the assay with RNA polymerase (active against Gram-negative bacteria), the “Block of RNA polymerase” value was “block the action of RNA polymerase”.
Turning to “microcin J25 (GGAGHVPEYFVGIGTPISFYG; not fully specified (bridges); UniProt Q9X2V7 38-58, looked up)”, the “Block of RNA polymerase” value in the assay on RNA polymerase is listed as “block the action of RNA polymerase”.

A word on the MIC: it is the least concentration at which growth counts as inhibited. A lower MIC goes with inhibition by little substance.
